Data set [1] relates to MC38 tumors. Put plainly: MC38 graft in mice receiving LRP5-/- or WT bone marrow. The data set is classed as in vivo. The method, then:
ApcMin/+(C57BL/6J-ApcMin/J) and MX1Cre [B6.Cg-Tg(Mx 1-cre)1Cgn/J] mice were acquired from Jackson Laboratory. Wildtype C57BL/6 mice were purchased from Envigo (Harlan). The LoxP-floxed Lrp5 (Lrp5f/f) and Lrp6 (Lrp6f/f) mice were obtain from Bart Williams (54). The Lrp5f/f and Lrp6f/f mice were backcrossed to C57/BL6 for more than 7 generations before being intercrossed with MX1Cre. LRP5 and LRP6 gene disruption was induced by intraperitoneal injection of the Lrp5fl/flMX1Cre mice with 40 μl poly-I:C (10 mg/mL) every other day for 4 treatments. The mice were used for NK cell isolation three weeks after the poly-I:C treatment. For adoptive bone marrow transfer, bone marrows from the Lrp5fl/flMX1Cre mice were transferred to lethally irradiated C57/BL6 mice (8 weeks old) via retro-orbital injection. After recovery (8 weeks), the mice were treated with poly-I:C and used in experiments three weeks after poly-I:C treatment.
To further test the importance of LRP5 in tumor progression and the anti-tumor effect of DKK2 blockade, an adoptive cell transfer model was employed. Specifically, bone marrows (BMs) from the Lrp5fl/flMx1Cre mice were transferred into lethally irradiated WT C57BL mice. After recovery and Cre expression induction, the mice were grafted with the MC38 cells. The lack of LRP5 in hematopoietic cells led to a significant impediment in the progression of the grafted tumors (FIG. 6C).

For the next data set, the system named is YUMM1.7 tumors. Put plainly: YUMM1.7 melanoma tumor graft in C57BL/6 mice. The data set is classed as in vivo, mouse. As to conditions: 10 mg/kg i.p. every 5 days starting Day 12. The method, then:
(§1) Tumor growth was measured by calipers, and size was expressed as one half of the product of perpendicular length by square width in cubic millimeters. For antibody treatment, control IgG3 antibody and anti-DKK2 antibody were diluted in PBS, and 100 μl was injected i.p. at intervals indicated in the Figures. For survival tests, mice are euthanized when the tumor size exceeding 1800 mm3 for MC38 and 1200 mm3 for YUMM1.7.

For data set [2], the system named is tumor infiltrated leukocytes (CD8+ and NK1.1+ cells). Put plainly: Flow cytometry of tumor infiltrated leukocytes, MC38 tumors. The data set is classed as in vivo, mouse. As to conditions: one injection 10 mg/kg i.p., 24 hours.
Data set [3] concerns MC38 tumors. Put plainly: MC38 syngeneic tumor graft in C57BL mice. In kind it is in vivo, mouse. On the procedure: as §1
MC38 cells, which were derived from mouse colon carcinoma in a C57BL mouse, progress very fast when grafted to immunocompetent WT C57BL mice. Thus, this allograft model, also known as a syngeneic model, can be used to test the therapeutic potential of the anti-DKK2 antibody 5F8 in vivo with a functional host immune system. In one study, C57BL mice (10 week old female mice, n=5 per group) were grafted with MC38 cells via the subcutaneous (s.c.) route. Fourteen days later, the mice were treated every 3 days via the intraperitoneal (i.p.) route with mouse IgG or 5F8 (8 mg/kg). Tumors were collected on Day 22 and weighed.

In data set [4] the test system is MC38 tumors. Put plainly: Immunostaining of MC38 tumor sections (CD31, Ki67, activated caspase 3, granzyme B). Particulars: 5F8 10 mg/kg i.p. every three days from Day 14, vs IgG. The data set is classed as in vivo, mouse. On the procedure:
Tissues were fixed with 4% PFA (Santa-Cruz sc-281692) for 4-6 hours on a shaker at 4° C. They were then washed with PBS three times and perfused in 20% sucrose solution in PBS overnight at 4° C. They were subsequently mounted in the OCT embedding compound and frozen first at −20 and then at −80° C. Tissue sections were prepared at 8 μm thickness using a cryostat and mounted onto gelatin-coated histological slides, which were stored at −80° C. For immunostaining, slides were thawed to room temperature and fixed in pre-cold acetone for 10 minutes, followed by rehydration in PBS for 10 minutes. The slides were incubated in a blocking buffer (1% horse serum and 0.02% Tween 20 in PBS) for 1-2 hours at room temperature, followed by incubation with primary antibodies, which were diluted in an incubation buffer (1% horse serum, 0.02% Tween 20 in PBS), overnight at 4° C. The slides were then washed three times with PBS and incubated with a secondary antibody [donkey anti-rabbit IgG H&L (DyLight® 550) preadsorbed (abcam ab96920)] in the incubation buffer for 1 hour at room temperature. After repeated washes the slides were mounted with an antifade mounting media containing DAPI (Thermo Fisher P36931) and visualized using a confocal microscope.
To test the effects of 5F8 antibody on tumor cell microenvironment such as changes in angiogenesis, proliferation or apoptosis, MC38 tumors were examined using an immunohistological approach. In this study, C57BL mice (10 week old female mice, n=5 per group) were grafted with MC38 cells via the subcutaneous (s.c.) route. Fourteen days later, the mice were treated every three days via the intraperitoneal (i.p.) route with mouse IgG or 5F8 (10 mg/kg). […] To test if DKK2 expression may alter the tumor microenvironment to induce apoptosis via proper anti-tumor immune response, the levels and anti-tumor activity of cytotoxic effector immune cells were measured. Immune cytotoxic cells, such as natural killer cells (NK) and CD8+T lymphocytes, are capable of directly killing tumor cells by secreting preformed granules containing perforin and granzymes. Uptake of granzyme B (gzmb), which is a serine protease, induces target cell apoptosis via a pathway involving proteolytic activation of Caspases, cleavage of Bid, and fragmentation of DNA. (Thornberry et al., J Biol Chem, 1997. 272(29): p. 17907-11; Heusel et al., Cell, 1994. 76(6): p. 977-87).

B1: 5F8: Mouse monoclonal antibody to DKK2, raised against a synthetic peptide of human DKK2 (SEQ ID NO: 21); chains SEQ ID NOs: 22, 23 (antibody, V domains shown)
VH: GAELVRPGASVKLSCKASGYSFTNYWMNWVKQRPGQGLEWIGMIHPSDSETRLNQKFKDKATLTVDKSSSTAYMQLSSPTSEDSAVYYCAREGRLGLRSYAMDYWGQGTSVTVSS
VL: PSSLAMSVGQKVTMSCKSSQSLLNSSNQKNYLAWYQQKPGQSPKLLVYFASTRESGVPDRFVGSGSGTDFTLTITSVQAEDLADYFCQQHYITPLTFGAGTKLE
With B1, in the data set on MC38 tumors [1] (LRP5-/- bone marrow, 5F8 10 mg/kg i.p. Day 12, 17, 20), the “tumor progression in mice with hematopoietic LRP5-deficiency” value was “no significant effects on the tumor progression”. Also, in the data set on MC38 tumors [1] (WT BM, 5F8 10 mg/kg i.p. Day 12, 17, 20), the “tumor progression in mice that received WT bone marrow” value is listed as “retained its tumor suppressive effect”. Also, the “cytotoxic immune cell activation under hematopoietic LRP5 deficiency” value with MC38 tumors [1] (flow cytometry of tumor infiltrated leukocytes) was “abrogated 5F8's effects on cytotoxic immune cell activation”. In addition, in the data set on YUMM1.7 tumors, the “performance compared with PD-1 blockade, YUMM1.7 model” value is recorded as “a general trend of better performance than PD-1 blockade”; the “survival of tumor-bearing mice, YUMM1.7 model” value was “extended the survival of tumor-bearing mice”; the “tumor progression, YUMM1.7 model” value is reported as “significantly impeded tumor progression”. In data set [2], the “tumor sizes after acute treatment” value is reported as “no obvious differences in tumor sizes”. In the data set on MC38 tumors [3] (10 mg/kg i.p. every 5 days starting Day 18), the “anti-tumor effect, MC38 model, DKK2/PD-1 blockade study” value is “tumor suppressive effects”. Moreover, the “tumorigenic growth of grafted MC38 cells (tumor volume and weight)” value in the data set with MC38 tumors [3] (C57BL, i.p. every 3 days from Day 14, vs IgG3) is “significantly inhibited the tumorigenic growth”. Further, the “tumor progression (tumor volume and weight), short study” value with MC38 tumors [3] (MC38, 5F8 10 mg/kg i.p. Days 9 and 12, collected Day 14, vs IgG) was “reduced tumor volume and weight”. Besides, the “tumor suppressive effect after depletion of NK or CD8+ cells” value with MC38 tumors [3] (MC38, anti-NK1.1 or anti-CD8a 300 ug/mouse, 5F8 10 mg/kg every three days) is “largely diminished the tumor suppressive effect of 5F8”. In addition, the survival result in the data set with MC38 tumors [3] (MC38 in C57BL, 5F8 10 mg/kg every three days i.p., n=10) is listed as “improved survival rates”. Besides, in the data set on MC38 tumors [4], the “apoptosis (activated caspase 3) in tumors” value is recorded as “a significant enhancement of apoptosis”, the “number of granzyme B-positive cells in tumors” value is listed as “significant increases in the number of granzyme B-positive cells”, the “tumor angiogenesis (CD31)” value is on record as “no significant difference in angiogenesis” and the “tumor cell proliferation (Ki67)” value is on record as “no significant difference in tumor cell proliferation”.

The record behind these values is patent US20200179510A1, “LOW DENSITY LIPOPROTEIN RECEPTOR RELATED PROTEIN 5 INHIBITION SUPPRESSES TUMOR FORMATION” (YALE UNIVERSITY, priority 2017, published 2020).
